Assay results: patent publication US11618753B2 (priority 2018, dated 2023)
Where a name gives a salt, the structure may show the parent alone.

System: MLKL phosphorylation, HT29-L23 human colorectal adenocarcinoma cells
Assay: cells
Details: read-out: pMLKL HCS Cell Assay (IC50, uM)

SMILES | IC50 [µM]
Nc1ncnn2c(-c3cc(C(=O)N[C@@H]4CN(C(=O)C5CCC(F)(F)C5)C[C@@H]4F)ccc3F)cc(C(F)(F)F)c12 (stereo partly drawn) [Example 424, 3-[4-amino-5-(trifluoromethyl)pyrrolo[2,1-f][1,2,4]triazin-7-yl]-N-[(3R,4S)-1-(3,3-difluorocyclopentane-carbonyl)-4-fluoropyrrolidin-3-yl]-4-fluorobenzamide] | 0.024
Nc1ncnn2c(-c3cc(C(=O)N[C@@H]4CN(C(=O)C5CCC(F)(F)CC5)C[C@@H]4F)ccc3F)cc(C(F)(F)F)c12 [Example 425, 3-[4-amino-5-(trifluoromethyl)pyrrolo[2,1-f][1,2,4]triazin-7-yl]-N-[(3R,4S)-1-(4,4-difluorocyclohexane-carbonyl)-4-fluoropyrrolidin-3-yl]-4-fluorobenzamide] | 0.051
C[C@@](O)(C(=O)N1C[C@H](F)[C@H](NC(=O)c2ccc(F)c(-c3cc(C(F)(F)F)c4c(N)ncnn34)c2)C1)C(F)(F)F [Example 426, 3-[4-amino-5-(trifluoromethyl)pyrrolo[2,1-f][1,2,4]triazin-7-yl]-4-fluoro-N-[(3R,4S)-4-fluoro-1-[(2R)-3,3,3-trifluoro-2-hydroxy-2-methylpropanoyl]pyrrolidin-3-yl] benzamide, TFA] | 0.0074
CC(C)(O)C(=O)N1C[C@H](F)[C@H](NC(=O)c2ccc(F)c(-c3cc(C(F)(F)F)c4c(N)ncnn34)c2)C1 [Example 427, 3-[4-amino-5-(trifluoromethyl)pyrrolo[2,1-f][1,2,4]triazin-7-yl]-4-fluoro-N-[(3R,4S)-4-fluoro-1-(2-hydroxy-2-methylpropanoyl)pyrrolidin-3-yl]benzamide, TFA] | 0.405
Cc1ncc(-c2cc(C(F)(F)F)c3c(N)ncnn23)cc1C(=O)N[C@@H]1CN(CC(O)C(F)(F)F)C[C@@H]1F (stereo partly drawn) [Example 430, 5-[4-amino-5-(trifluoromethyl)pyrrolo [2,1-f][1,2,4]triazin-7-yl]-N-[(3R,4S)-4-fluoro-1-(3,3,3-trifluoro-2-hydroxypropyl)pyrrolidin-3-yl]-2-methylpyridine-3-carboxamide] | 0.022
COc1ncc(-c2cc(C(F)(F)F)c3c(N)ncnn23)cc1C(=O)N[C@@H]1CN(C(C)c2ccc(F)cc2F)C[C@@H]1F (stereo partly drawn) [Example 436, 5-[4-amino-5-(trifluoromethyl)pyrrolo[2,1-f][1,2,4]triazin-7-yl]-N-[(3R,4S)-1-[1-(2,4-difluorophenyl)ethyl]-4-fluoropyrrolidin-3-yl]-2-methoxypyridine-3-carboxamide] | 0.0085
COc1ncc(-c2cc(C(F)(F)F)c3c(N)ncnn23)cc1C(=O)NC1CN(C(C)c2csc(C)n2)C[C@@H]1F (stereo partly drawn) [Example 442] | 0.017
COc1ncc(-c2cc(C(F)(F)F)c3c(N)ncnn23)cc1C(=O)N[C@@H]1CN(C(C)c2csc(C)n2)C[C@@H]1F (stereo partly drawn) [Example 443, 5-[4-amino-5-(trifluoromethyl)pyrrolo[2,1-f][1,2,4]triazin-7-yl]-N-[(3R,4S)-4-fluoro-1-[1-(2-methyl-1,3-thiazol-4-yl)ethyl]pyrrolidin-3-yl]-2-methoxypyridine-3-carboxamide] | 0.021
COc1ncc(-c2cc(C(F)(F)F)c3c(N)ncnn23)cc1C(=O)N[C@@H]1CN(C(C)c2ncccc2F)C[C@@H]1F (stereo partly drawn) [Example 450, 5-[4-amino-5-(trifluoromethyl)pyrrolo[2,1-f][1,2,4]triazin-7-yl]-N-[(3R,4S)-4-fluoro-1-[1-(3-fluoropyridin-2-yl)ethyl]pyrrolidin-3-yl]-2-methoxypyridine-3-carboxamide] | 0.045
COc1ncc(-c2cc(C(F)(F)F)c3c(N)ncnn23)cc1C(=O)N[C@@H]1CN(Cc2ccc(F)cn2)C[C@@H]1F [Example 464, 5-[4-amino-5-(trifluoromethyl)pyrrolo[2,1-f][1,2,4]triazin-7-yl]-N-[(3R,4S)-4-fluoro-1-[(5-fluoropyridin-2-yl)methyl]pyrrolidin-3-yl]-2-methoxypyridine-3-carboxamide] | 0.033
COc1ncc(-c2cc(C(F)(F)F)c3c(N)ncnn23)cc1C(=O)N[C@@H]1CN(CC(O)c2ccccc2)C[C@@H]1F (stereo partly drawn) [Example 465, 5-[4-amino-5-(trifluoromethyl)pyrrolo[2,1-f][1,2,4]triazin-7-yl]-N-[(3R,4S)-4-fluoro-1-(2-hydroxy-2-phenylethyl)pyrrolidin-3-yl]-2-methoxypyridine-3-carboxamide] | 0.388
COc1ncc(-c2cc(C(=O)N3CC4(COC4)C3)c3c(N)ncnn23)cc1C(=O)N1CCC[C@@H](Cc2ccc(F)cc2)C1 [Example 466, 7-{5-[(3S)-3-[(4-fluorophenyl)methyl]piperidine-l-carbonyl]-6-methoxypyridin-3-yl}-5-{2-oxa-6-azaspiro[3.3]heptane-6-carbonyl}pyrrolo[2,1-f][1,2,4]triazin-4-amine] | 0.116
CCNC(=O)c1cc(-c2cnc(OC)c(C(=O)N3CCC[C@@H](Cc4ccc(F)cc4)C3)c2)n2ncnc(N)c12 [Example 467, 4-amino-N-ethyl-7-{5-[(3S)-3-[(4-fluorophenyl)methyl]piperidine-1-carbonyl]-6-methoxypyridin-3-yl}pyrrolo[2,1-f][1,2,4]triazine-5-carboxamide] | 0.031
COc1ncc(-c2cc(C(=O)NCC#N)c3c(N)ncnn23)cc1C(=O)N1CCC[C@@H](Cc2ccc(F)cc2)C1 [Example 468, 4-amino-N-(cyanomethyl)-7-{5-[(3S)-3-[(4-fluorophenyl)methyl]piperidine-1-carbonyl]-6-methoxypyridin-3-yl}pyrrolo[2,1-f][1,2,4]triazine-5-carboxamide] | 0.037
COc1ncc(-c2cc(C(=O)NCCO)c3c(N)ncnn23)cc1C(=O)N1CCC[C@@H](Cc2ccc(F)cc2)C1 [Example 469, 4-amino-7-{5-[(3S)-3-[(4-fluorophenyl)methyl]piperidine-1-carbonyl]-6-methoxypyridin-3-yl}-N-(2-hydroxyethyl)pyrrolo[2,1-f][1,2,4]triazine-5-carboxamide] | 0.079
COc1ncc(-c2cc(C(=O)N(C)C)c3c(N)ncnn23)cc1C(=O)N1CCC[C@@H](Cc2ccc(F)cc2)C1 [Example 470] | 0.051
COc1ncc(-c2cc(C(=O)NCCNC(C)=O)c3c(N)ncnn23)cc1C(=O)N1CCC[C@@H](Cc2ccc(F)cc2)C1 [Example 471] | 0.143
COc1ncc(-c2cc(C(=O)NCC#N)c3c(N)ncnn23)cc1C(=O)NCC[C@H](O)c1ccc(Cl)cc1 [Example 473, 5-{4-amino-5-[(cyanomethyl)carbamoyl}pyrrolo[2,1-f][1,2,4]triazin-7-yl}-N-[(3S)-3-(4-chlorophenyl)-3-hydroxypropyl]-2-methoxypyridine-3-carboxamide] | 0.088
COc1ncc(-c2cc(C(=O)NCCO)c3c(N)ncnn23)cc1C(=O)NCC[C@H](O)c1ccc(Cl)cc1 [Example 474, 5-{4-amino-5-[(2-hydroxyethyl)carbamoyl}pyrrolo[2,1-f][1,2,4]triazin-7-yl]-N-[(3S)-3-(4-chlorophenyl)-3-hydroxypropyl]-2-methoxypyridine-3-carboxamide] | 0.098
CCCNC(=O)c1cc(-c2cnc(OC)c(C(=O)NCC[C@H](O)c3ccc(Cl)cc3)c2)n2ncnc(N)c12 [Example 475, 5-[4-amino-5-(propylcarbamoyl)pyrrolo[2,1 f][1,2,4]triazin-7-yl]-N-[(3S)-3-(4-chlorophenyl)-3-hydroxypropyl]-2-methoxypyrine-3-carboxamide] | 0.047
COc1ncc(-c2cc(C(=O)N(C)C)c3c(N)ncnn23)cc1C(=O)NCC[C@H](O)c1ccc(Cl)cc1 [Example 476, 5-[4-amino-5-(dimethylcarbamoyl)pyrrolo[2,1-f][1,2,4]triazin-7-yl]-N-[(3S)-3-(4-chlorophenyl)-3-hydroxypropyl]-2-methoxypyridine-3-carboxamide] | 0.072
CNC(=O)c1cc(-c2cnc(OC)c(C(=O)NCC[C@H](O)c3ccc(Cl)cc3)c2)n2ncnc(N)c12 [Example 477, 5-[4-amino-5-(methylcarbamoyl)pyrrolo[2,1-f][1,2,4]triazin-7-yl]-N-[(3S)-3-(4-chlorophenyl)-3-hydroxypropyl]-2-methoxypyridine-3-carboxamide] | 0.072
COc1ncc(-c2cc(CNCCO)c3c(N)ncnn23)cc1C(=O)N[C@@H]1CN(CC(O)C(F)(F)F)C[C@@H]1F (stereo partly drawn) [Example 478, 5-(4-amino-5-{[(2-hydroxyethyl)amino]methyl}pyrrolo[2,1-f][1,2,4]triazin-7-yl)-N-[(3R,4S)-4-fluoro-1-(3,3,3-trifluoro-2-hydroxypropyl)pyrrolidin-3-yl]-2-methoxypyridine-3-carboxamide] | 0.078
COc1ncc(-c2cc(CN3CC4(COC4)C3)c3c(N)ncnn23)cc1C(=O)N[C@@H]1CN(CC(O)C(F)(F)F)C[C@@H]1F (stereo partly drawn) [Example 480] | 0.323
COc1ncc(-c2cc(CN3CCOCC3)c3c(N)ncnn23)cc1C(=O)N[C@@H]1CN(CC(O)C(F)(F)F)C[C@@H]1F (stereo partly drawn) [Example 481, 5-{4-amino-5-[(morpholin-4-yl)methyl]pyrrolo[2,1-f][1,2,4]triazin-7-yl}-N-[(3R,4S)-4-fluoro-1-(3,3,3-trifluoro-2-hydroxypropyl)pyrrolidin-3-yl]-2-methoxypyridine-3-carboxamide] | 0.106
COc1ncc(-c2cc(CN3CC(N)C3)c3c(N)ncnn23)cc1C(=O)N[C@@H]1CN(CC(O)C(F)(F)F)C[C@@H]1F (stereo partly drawn) [Example 482, 5-{4-amino-5-[(3-aminoazetidin-1-yl)methyl]pyrrolo[2,1-f][1,2,4]triazin-7-yl}-N[(3R,4S)-4-fluoro-1-(3,3,3-trifluoro-2-hydroxypropyl)pyrrolidin-3-yl]-2-methoxypyridine-3-carboxamide] | 0.205
COc1ncc(-c2cc(CN3CCC3)c3c(N)ncnn23)cc1C(=O)N[C@@H]1CN(CC(O)C(F)(F)F)C[C@@H]1F (stereo partly drawn) [Example 483, 5-{4-amino-5-[(azetidin-1-yl)methyl]pyrrolo[2,1-f][1,2,4]triazin-7-yl}-N-[(3R,4S)-4-fluoro-1-(3,3,3-trifluoro-2-hydroxypropyl)pyrrolidin-3-yl]-2-methoxypyridine-3-carboxamide] | 0.044
